According to the supplement of paper PMC3334620:
The full ranking holds about 33,000 sequences; the median of “E-score (-0.5 to 0.5)” is about -0.012, and the highest 2% start at about 0.29. The list shows a part of the results.

Target: T1, Ybr033w (UniProt P38073)
T1 sequence: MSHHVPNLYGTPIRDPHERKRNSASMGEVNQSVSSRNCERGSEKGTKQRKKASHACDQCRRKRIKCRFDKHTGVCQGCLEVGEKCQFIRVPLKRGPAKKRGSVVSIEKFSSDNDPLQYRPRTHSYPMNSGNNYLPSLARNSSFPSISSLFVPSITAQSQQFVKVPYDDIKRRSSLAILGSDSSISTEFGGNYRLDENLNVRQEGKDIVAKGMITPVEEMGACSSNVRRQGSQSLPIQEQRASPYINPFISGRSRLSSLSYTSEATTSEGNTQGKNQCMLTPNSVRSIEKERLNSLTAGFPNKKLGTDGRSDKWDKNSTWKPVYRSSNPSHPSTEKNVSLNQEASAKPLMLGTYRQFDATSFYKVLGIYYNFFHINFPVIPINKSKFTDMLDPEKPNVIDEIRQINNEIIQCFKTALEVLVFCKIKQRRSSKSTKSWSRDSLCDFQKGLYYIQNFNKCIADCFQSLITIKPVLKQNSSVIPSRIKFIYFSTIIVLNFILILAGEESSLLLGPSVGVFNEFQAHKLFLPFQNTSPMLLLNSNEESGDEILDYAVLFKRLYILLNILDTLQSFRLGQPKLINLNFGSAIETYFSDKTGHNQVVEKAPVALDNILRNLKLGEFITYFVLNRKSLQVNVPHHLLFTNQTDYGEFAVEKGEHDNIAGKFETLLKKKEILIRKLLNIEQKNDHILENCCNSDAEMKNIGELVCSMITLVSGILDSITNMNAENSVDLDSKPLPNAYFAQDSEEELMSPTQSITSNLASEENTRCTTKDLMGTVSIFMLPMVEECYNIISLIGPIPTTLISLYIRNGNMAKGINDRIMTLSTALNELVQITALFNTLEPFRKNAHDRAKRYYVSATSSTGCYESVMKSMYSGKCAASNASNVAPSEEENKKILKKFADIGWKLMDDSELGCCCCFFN
Experiment: PBM E-score (8-mer binding enrichment) (E-score (-0.5 to 0.5)); higher = stronger / more preferred TF binding; most listed sequences are background and not binding sites
Conditions: protein concentration: 200 nM; construct: GST-full length
How it was run: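 Universal all-10-mer Agilent arrays, fresh or stripped once, were converted to double-stranded form by primer extension. GST-tagged yeast transcription factors from PURExpress in vitro transcription/translation, full-length or DNA-binding domain only, were applied at about 100-200 nM and detected with fluorescent anti-GST. After masliner normalisation, the Universal PBM Analysis Suite scored each ungapped eight-base word together with its reverse complement by E-score.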

Sequence | PBM E-score
AGTAAAGG | -0.0445
GAGCAGAC | -0.171
CACGCGAG | -0.0117
TCCAAGCA | 0.0722
CTGTCTAA | -0.0578
TCTAGGCA | 0.111
CACGGTCG | -0.258
GATTCCGC | -0.0637
GGCTTTTA | -0.17
ACGGTGGG | -0.186
ATCGTAAC | 0.121
CGGTACCG | -0.0641
AAATAAGC | 0.0677
ACTTGTAA | 0.0833
CGCGAGGA | -0.0663
AATATGTC | 0.142
GCTGGTCC | -0.271
GCCAACTA | -0.0239
ATTTAGTC | 0.0709
CGAAAAGC | -0.0982
CAGAGGAA | -0.0525
CCCGTGTC | -0.274
CCATTCGC | -0.238
TGTCGTAA | -0.0536
CATCGGGC | -0.228

Sequence | PBM E-score
AAAGTAAG | 0.0621
TGGATACA | 0.0503
CTAAACAC | 0.0111
CCCGTTGA | -0.125
GGCGGACC | -0.288
GCCAGCAA | -0.0918
ACGACTAA | -0.0572
CAAGGCCA | -0.0609
CGTGAGGC | -0.115
CACCTCAG | -0.0727
AGGGATCG | -0.0828
CAGATTGC | -0.00774
ACCGCCCT | -0.152
ACGACTAT | 0.049
CTCATCCC | -0.189
GGCGGGAA | 0.0258
CATCGATA | 0.166
ACACCCCC | -0.362
CGCCGACG | -0.279
CAGCTTCC | -0.0219
GGCGCCAC | -0.329
GTGGGAAC | -0.164
CCACAGGC | -0.336
GCCACAAC | 0.0425
AGTACCGA | -0.154

Sequence | PBM E-score
AGAGCGCC | -0.18
GATTGACC | -0.132
ACGAGCCA | -0.163
AAGCCCGC | -0.212
GACTGATC | -0.13
AGCCATCG | -0.1
AGTCTAAT | 0.0593
AGGGTCTG | -0.275
GATTGACA | 0.154
CCAAAGAA | 0.101
AGACATTC | -0.00346
CCTGTGCA | -0.185
CAGACCAG | -0.0218
GGCAAGGA | -0.104
CAGCACTG | -0.107
AAGAGAGC | -0.205
CCGGTAAA | 0.151
ACTCGACC | -0.205
ATAGATAA | 0.28
CACTGTAG | 0.167
ATGGCGCC | -0.132
AGACGGCA | -0.0714
TATGTCAA | 0.318
CCGATCCG | -0.16
AATCGCGA | 0.0169

Sequence | PBM E-score
CCATAAGC | -0.118
AAGTCGCA | 0.123
AAGCGGGC | -0.309
ATACCTCG | 0.196
CCTATCGC | -0.207
ATATGGTC | 0.0639
CCACGCAC | -0.0101
CTCGCTTA | 0.0424
ATCTGCCA | -0.137
AAATTGTT | 0.317
ATAACCTG | 0.0845
ATGATTGA | -0.0158
ACAGCTGC | -0.0919
ACCACACA | 0.182
GGAGGGCC | -0.176
CTGACCTA | -0.169
AGCTGAAT | 0.135
CATCAGTA | 0.0531
CCTAACGC | -0.00181
CACTGTTA | -0.0716
AACCGAGG | -0.305
CGTTCCTC | -0.0873
CATTGTAA | 0.0608
ACCGCTGC | -0.31
AACCGCAG | 0.0187

Sequence | PBM E-score
ACGACTCC | 0.0443
CATCATGA | -0.00442
ATAACTTA | 0.19
GAGTTGTA | 0.174
CCCCGCCG | -0.0998
CGACTGAG | -0.0895
AGTGGAAT | 0.0873
CATTAACA | 0.139
CGCTGATA | -0.0541
ACGGCTGG | -0.0873
ATGACATG | -0.136
CAGAGTAG | -0.0934
ACAGGCGG | -0.0121
AGGTACGG | -0.182
GACAGTCC | -0.164
ACGACAAG | -0.0398
CCTAGTCA | -0.156
AAAGTGAC | 0.105
GTCAAAAA | 0.179
CTTCGAGA | -0.138
GCTTGGCA | -0.15
ACTGGCCT | -0.0126
TAAATATA | 0.353
GTGCGCGA | -0.215
CACACAAA | 0.247

Sequence | PBM E-score
AGAGGCAC | -0.219
CAGTTCAC | 0.0016
ATATTGTG | 0.0988
ATTAACAG | 0.0928
GTATGGCA | -0.0717
GTCAGCTA | -0.241
CAGTATCA | -0.0137
ATGCCACG | -0.193
CACTTGTA | 0.0975
CTGAGCTA | -0.0777
ACTTTTCG | 0.248
TTAGAAAA | 0.172
TAACTGAA | 0.0212
ACCACGGA | -0.239
GCAGTGCA | 0.054
CCTACTAA | 0.155
TGCGAGAA | -0.17
CGAGCCCG | -0.227
CCGGTTCC | -0.13
ACTTATCG | 0.00773
CCTGGCAG | -0.148
CCGTGGAA | 0.11
ACTGCAAA | 0.173
TATGCTGA | 0.163
CCCTAACC | -0.265

Sequence | PBM E-score
AGACTCGG | -0.198
ACTCCTAC | 0.0754
GCATAAGC | 0.101
CTGCCCAC | -0.165
ACCACTCT | -0.00146
ACGTCGAC | -0.102
ATACCAAG | 0.116
CAACATTA | 0.162
CATGTGTC | -0.0905
CCCAGAGA | -0.238
ACCATACC | -0.0191
AATATACC | 0.182
ATGAACCA | 0.225
ATCAGCAT | 0.186
AAAAGTTT | 0.266
ACGAGGAG | -0.00401
AAGTGGGC | -0.0419
CCCTACGA | -0.0577
CGACCTCA | -0.0245
CTTTTACC | 0.101
CTCTGGCA | -0.0948
CTGTTGTC | -0.0159
